The campaign covered roughly 340,000 compounds. About 6,900 (2%) were called active. Rule as the data show it: active = inhibition above about 30%; inactive = below that, where a call was filed. The entries are a selection whose mix differs from that of the whole data set. Where no call is shown, the source filed none.
These compounds were tested against D(2) dopamine receptor (Homo sapiens) (UniProt P14416) (assay: HTS Assay for Allosteric Antagonists of the Human D2 Dopamine Receptor: Primary Screen for Antagonists). Details: HEK293 TREx D2 cells, calcium flux, dopamine EC80; at 10 µM; stronger effect = higher value.
Chain of UniProt P14416 (P14416 whole entry, looked up): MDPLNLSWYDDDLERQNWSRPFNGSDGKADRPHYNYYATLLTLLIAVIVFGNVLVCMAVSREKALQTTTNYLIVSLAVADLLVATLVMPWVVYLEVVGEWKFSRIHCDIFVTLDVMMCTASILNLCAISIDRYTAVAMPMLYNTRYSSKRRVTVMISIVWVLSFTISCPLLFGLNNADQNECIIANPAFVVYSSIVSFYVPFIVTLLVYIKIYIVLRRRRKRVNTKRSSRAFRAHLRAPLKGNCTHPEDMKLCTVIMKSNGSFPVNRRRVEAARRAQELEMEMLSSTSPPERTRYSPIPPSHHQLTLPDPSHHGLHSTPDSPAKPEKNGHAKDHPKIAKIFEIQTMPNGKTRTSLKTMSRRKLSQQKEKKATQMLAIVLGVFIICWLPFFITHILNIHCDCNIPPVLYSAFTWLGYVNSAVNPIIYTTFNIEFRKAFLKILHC
Summary of the method: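 Compounds are added to dye-loaded, induced HEK293 T-REx cells coupled to calcium release via D2; after a 3 min kinetic read an EC80 dopamine stimulus is given and fluorescence is recorded for 3 more min.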
Also: 0% is about no effect.

Structure (SMILES) | inhibition
CC1=C(c2ccc(C)c(C)c2)S(=O)(=O)N=C1N1CCC(C(=O)NCCc2ccc(Cl)cc2)CC1 | 12.7%
Cc1ccc(C)c(NC(=O)Cn2cc(C(=O)C3CCCCC3)c3ccccc32)c1 | 8.15%
O=C(c1ccc2c(c1)N(Cc1cccc(Cl)c1)C(=O)c1ccccc1S2(=O)=O)N1CCCCC1 | 6.2%
Cc1ccc2[nH]c3c(=O)n(CC(=O)N(C)c4cc(Cl)ccc4C)ncc3c2c1 | 9.37%
O=C(CN1CCCN(Cc2ccc(Cl)cc2)S1(=O)=O)Nc1ccccc1F | 3.91%
COc1cccc(NC(=O)c2oc3ccccc3c2NC(=O)c2ccc(C(F)(F)F)cc2)c1 | 0.278%
COc1cccc2c1Oc1ncccc1N(C(=O)CCC(=O)NCc1ccc(N(C)C)cc1)C2 | -5.03%
Cc1oc2ncn(CC(C)C)c(=O)c2c1C(=O)N1CCN(c2ccc(F)cc2)CC1 | 7.79%
COc1cccc(NC(=O)/C(C#N)=C\c2cn(Cc3ccc(C)cc3)c3ccccc23)c1 | 4.53%
O=C(c1ccc(C(F)(F)F)cc1)N1CCC(c2nc(-c3ccc(S(=O)(=O)N4CCCC4)cc3)no2)CC1 | 2.46%
COc1ccc(-c2oc3ncn4nc(-c5ccccc5Br)nc4c3c2-c2ccc(OC)cc2)cc1 | -2.14%
COC(=O)c1ccc(Cl)cc1NC(=O)N1CCCn2nc(C)cc21 | -0.245%
COc1cc(OC)c(NC(=O)CCCn2nc(C)c3sc4ccccc4c3c2=O)cc1Cl | 10.6%
COc1nc(-c2ccc(C)cc2)ccc1-c1noc(-c2ccccc2Br)n1 | 7.91%
CCn1c(C)cc(C(=O)CSc2nnnn2C2CCCC2)c1C | active: 30.4%
CC(=O)Nc1nonc1-c1nnc(SCC(=O)Nc2cc(C)cc(C)c2)n1C | -3.14%
Cc1ccc(C)c(N2CCN(C(=O)CN3CCSc4ccc(S(=O)(=O)N(C)C)cc43)CC2)c1 | -20.3%
O=c1c2cccnc2n(Cc2ccccc2F)c(=O)n1Cc1ccccc1Cl | -5.62%
CCOC(=O)c1ccc(NC(=O)CC2C(=O)N(c3cccc(OC)c3)C(=O)N2C2CCCCC2)cc1 (stereo not given) | -6.78%
Cc1ccc(OCCn2cc(C(=O)C3CCCCC3)c3ccccc32)cc1 | 10.8%

Structure (SMILES) | inhibition
CCN1CCN(c2cc(C)c3cc(NC(=O)c4cccc(C(F)(F)F)c4)ccc3n2)CC1 | 7.63%
CCOC(=O)c1c(N)n(-c2ccc(Cl)c(Cl)c2)c2nc3ccccc3nc12 | -10.6%
COc1cccc(CSc2nc3n(n2)C(c2cccs2)C(C(=O)Nc2ccccc2C)=C(C)N3)c1 (stereo not given) | 18.6%
Cc1ccc(NC(=O)Cn2c(=O)n(-c3ccc(Cl)c(Cl)c3)c(=O)c3c(C)c(C)sc32)c(C)c1 | -13.4%
O=S(=O)(NCc1nc2cccnc2n1Cc1ccc(F)cc1)c1ccc2c(c1)CCCC2 | -24.8%
CCOC(=O)c1ccc(NC(=O)c2c(NCc3cccs3)sc3c2CCCCC3)cc1 | 2.08%
Cc1cc(NC(=O)Cn2c(=O)nc(-c3ccccc3F)c3cc(Cl)ccc32)ccc1Br | -1.87%
O=S(=O)(NCCc1csc2nc(-c3ccc(F)cc3)nn12)c1ccc(Br)cc1 | -8.74%
CCOC(=O)c1c(C)oc2nc(C)nc(N3CCN(c4ccc(C(C)=O)cc4)CC3)c12 | 1.11%
CC(C)(C)OC(=O)N1CCC(c2c(C(=O)NCc3ccc(F)cc3)cnn2-c2ccc(F)cc2)CC1 | 7.06%
COc1cccc(C(=O)N(Cc2sccc2C)C2CCS(=O)(=O)C2)c1 (stereo not given) | 3.88%
COc1ccc(C(=O)Nc2cc(-c3cccc(C)c3)nn2-c2ccccc2)cc1 | 3.26%
N/C(=N\OC(=O)c1ccc(OCC(F)(F)F)nc1)c1ccc(Cl)cc1 | active: 30.3%
CCN(CC)CCNC(=O)c1sc2nc3n(c(=O)c2c1C)CCCCC3 | -21.7%
COc1ccc2cc3cc(C(=O)N4CCN(c5ccc(C(C)=O)cc5)CC4)sc3nc2c1Cl | 9.39%
Cc1ccc(-c2cn3c(n2)sc2cc(C(=O)NCCCN4CCCCC4)ccc23)cc1 | -3.66%
O=C(CCSCc1cnn(-c2ccccc2)c1-n1cccc1)NCc1ccccc1F | -4%
CCOc1ccc(NC(=O)c2cc3c(-c4ccccc4F)nn(C)c3s2)cc1 | -15.2%
C=Cc1ccc(Cn2c(C(=O)O)c(CNCc3cccs3)c3ccc(C)cc32)cc1 | 0.0819%
COc1ccccc1C(=O)Nc1c(C(=O)N(CCN(C)C)Cc2ccco2)oc2ccccc12 | -7.32%

Structure (SMILES) | inhibition
O=C1CC(c2ccncc2)c2cc3c(cc2N1)OCO3 (stereo not given) | active: 37.2%
Cn1c(SCc2ccc(F)cc2)nc2c([nH]c3ccccc32)c1=O | 8.58%
CCOC(=O)C1CCCN(C(=O)c2cn(CC)c3ccc(S(=O)(=O)N(C)C)cc3c2=O)C1 (stereo not given) | active: 35.1%
Cc1ccc(S(=O)(=O)c2cn(C)c3cc(N4CCCCCC4)c(F)cc3c2=O)cc1 | 3.78%
Cc1ccccc1NC(=O)c1ccc2nc(Cc3ccccc3)oc2c1 | -17.5%
CC(=O)c1ccc(NS(=O)(=O)c2cc(-c3cnc(C4CC4)o3)ccc2C)cc1 | -2.19%
CSc1nc(C)cc(Nc2c(C)cc(C)cc2C)n1 | -13.2%
COc1cccc(C(=O)Nc2ccc(Cl)c(-c3nc4ccccc4[nH]3)c2)c1 | 1.08%
CCc1ccc(OCCCSc2nc(-c3ccc(C(C)(C)C)cc3)nc3cc(=O)[nH]n23)cc1 | 3.31%
CC(=O)c1ccc(N2CCN(S(=O)(=O)c3ccc4c(c3)CC(C)N4C(=O)C3CCC3)CC2)cc1 (stereo not given) | 21.9%
COC(=O)c1ccc(NS(=O)(=O)c2ccc(-n3cccn3)cc2)cc1 | -17.7%
CCCCc1cc(=O)oc2cc(C)c3c(C)coc3c12 | -5.57%
CC(C)N1CCc2c(sc(NC(=O)Cc3ccccc3)c2C(N)=O)C1 | active: 40.1%
CSc1ncc(Cl)c(C(=O)Nc2ccc(S(=O)(=O)N3CCC(C)CC3)cc2)n1 | -1.76%
CCOC(=O)c1cccc(NC(=O)c2ccc3c(c2)nnn3C2CCCC2)c1 | -0.394%
Cc1ccc(C2c3c(-c4ccccc4O)n[nH]c3C(=O)N2CCCO)cc1 (stereo not given) | -1.61%
O=C(NCCn1cc(SCc2ccc(F)cc2)c2ccccc21)c1c(F)cccc1F | -14.5%
Cn1cnc(S(=O)(=O)N2CCCC(C(=O)Nc3ccc(F)cc3Cl)C2)c1 (stereo not given) | -5.62%
Cn1nnnc1SCCNCc1ccccc1OCc1ccccc1F | -13.5%
Cc1ccc(Cn2c(C(=O)Nc3cccc(Cl)c3)cc3sccc32)cc1 | 16.2%
